Tests used:
Conditions in all cases: both partners purified
[1] = biological target: T1, mouse KEAP1 full-length (1–624 a.a.), C151S&Y85F (mouse, UniProt Q9Z2X8 1-624, Y85F | C151S); assay: pull-down; KEAP1 (1 μM) pre-incubated 30 min at 20 °C with 1, 3 or 10 μM CDDO-Im, then 6xHis-CUL3^NTD (1 μM), Ni-NTA magnetic agarose beads; 50 mM Tris-HCl, 300 mM NaCl, 20 mM imidazole, 10 mM GSH, pH 8.0
T1 construct: KEAP1, mouse, full length, residues 1-624, with C151S and Y85F; also called KEAP1^C151S&Y85F; KEAP1^Y85F&C151S; source: bacteria, purified (HisPur Ni-NTA, HiTrap Q XL, TEV digestion, Superdex 200)

[2] = biological target: T2, mouse KEAP1 full-length (1–624 a.a.), WT (mouse, UniProt Q9Z2X8 1-624); assay: pull-down; KEAP1 (1 μM) pre-incubated 30 min at 20 °C with 1, 3 or 10 μM CDDO, then 6xHis-CUL3^NTD (1 μM), Ni-NTA magnetic agarose beads; 50 mM Tris-HCl, 300 mM NaCl, 20 mM imidazole, 10 mM GSH, pH 8.0
T2 construct: KEAP1, mouse, full length, residues 1-624; In some pull-downs it was pre-incubated with CDDO compounds (see the assays); also called KEAP1^WT; full-length KEAP1; source: bacteria, purified (HisPur Ni-NTA, HiTrap Q XL, TEV digestion, Superdex 200)

[3] = biological target: T3, mouse KEAP1 full-length (1–624 a.a.), C151S (mouse, UniProt Q9Z2X8 1-624, C151S); assay: as above
T3 construct: KEAP1, mouse, full length, residues 1-624, with C151S; also called KEAP1^C151S; source: bacteria, purified (HisPur Ni-NTA, HiTrap Q XL, TEV digestion, Superdex 200)

[4] = biological target: T4, mouse KEAP1 full-length (1–624 a.a.), Y85F (mouse, UniProt Q9Z2X8 1-624, Y85F); assay: as above
T4 construct: KEAP1, mouse, full length, residues 1-624, with Y85F; also called KEAP1^Y85F; source: bacteria, purified (HisPur Ni-NTA, HiTrap Q XL, TEV digestion, Superdex 200)

Measured: binding result

B1: 6xHis-tagged N-terminus domain ([…] a.a., I342R/L346D) of mouse CUL3 (domain or fragment)
chain: not shown
notes: CUL3 (Cullin 3), mouse, N-terminal domain, […], with I342R and L346D; also called CUL3^NTD; His-CUL3^NTD; source: bacteria, purified (HisPur Ni-NTA, HiTrap Q XL, Superdex 200)
binds: all assays above
